The values below come from PMC12390733.

Sequences of proteins named here, by UniProt entry; tags and fusion partners are left off. A change or cut given only in a name is not applied to a line headed by its entry. A line that says so, or that is headed by a name, gives the form on record, which may keep a tag or linker.
UniProt Q9NVH1: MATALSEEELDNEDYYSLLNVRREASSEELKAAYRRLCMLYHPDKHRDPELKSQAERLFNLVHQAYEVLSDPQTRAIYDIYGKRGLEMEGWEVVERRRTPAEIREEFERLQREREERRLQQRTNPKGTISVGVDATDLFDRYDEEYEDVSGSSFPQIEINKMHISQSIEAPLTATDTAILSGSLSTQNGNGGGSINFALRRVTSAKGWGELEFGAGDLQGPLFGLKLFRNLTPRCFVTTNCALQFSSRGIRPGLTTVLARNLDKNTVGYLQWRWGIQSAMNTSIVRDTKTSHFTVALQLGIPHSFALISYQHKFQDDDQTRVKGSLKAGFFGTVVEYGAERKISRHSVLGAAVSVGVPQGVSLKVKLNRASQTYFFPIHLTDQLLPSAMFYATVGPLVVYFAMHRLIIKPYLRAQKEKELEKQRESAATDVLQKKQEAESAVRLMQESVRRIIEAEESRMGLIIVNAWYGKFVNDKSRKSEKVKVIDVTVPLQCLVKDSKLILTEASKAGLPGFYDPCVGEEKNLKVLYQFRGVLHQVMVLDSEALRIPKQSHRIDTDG
Myc-tagged DNAJC11 mutant lacking aa 201 to 400 (Q9NVH1, form named): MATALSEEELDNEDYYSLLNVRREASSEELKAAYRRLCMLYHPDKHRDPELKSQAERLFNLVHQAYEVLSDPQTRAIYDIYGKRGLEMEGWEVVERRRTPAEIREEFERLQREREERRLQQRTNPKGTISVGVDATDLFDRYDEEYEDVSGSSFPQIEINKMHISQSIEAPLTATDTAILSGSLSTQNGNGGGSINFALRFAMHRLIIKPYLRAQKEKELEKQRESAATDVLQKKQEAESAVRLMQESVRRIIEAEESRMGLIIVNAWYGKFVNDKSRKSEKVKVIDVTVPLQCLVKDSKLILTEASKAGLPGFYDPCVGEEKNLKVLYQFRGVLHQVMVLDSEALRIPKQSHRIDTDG

For the assay, the target named is GFP-tagged SARS-CoV-2 nonstructural protein 3 (NSP3) (SARS-CoV-2) (UniProt P0DTD1). The assay is described as follows: co-IP.

No constants are given. Whether binding was seen depends on the method and setting. Binding seen in cells or lysates may run through a third protein. Some binding calls cover weakened binding; strength is not graded here.

Turning to “Myc-tagged DNAJC11 mutant lacking aa 1 to 200 (from UniProt Q9NVH1 201-559) (domain or fragment)”, the binding result is on record as “no binding”.
For the substance “Myc-tagged DNAJC11 mutant lacking aa 201 to 400 (from UniProt Q9NVH1 1-559)”, the binding entry is “binds”.
Take “Myc-tagged DNAJC11 mutant lacking aa 401 to 560 (from UniProt Q9NVH1 1-400) (domain or fragment)”: the binding result was “binds”.
